T1: UNK ZnF1-3 (human, UniProt Q9C0B0 31-174)
T1 sequence: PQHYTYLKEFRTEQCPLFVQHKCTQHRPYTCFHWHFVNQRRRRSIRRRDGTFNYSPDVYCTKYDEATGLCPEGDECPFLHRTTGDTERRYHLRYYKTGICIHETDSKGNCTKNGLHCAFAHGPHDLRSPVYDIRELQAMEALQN

B1: chr2:48026839:48026840:+_ENSG00000116062_ENST00000540021|hu_hu|hu_hu_hu_mus_False|28_98 (ssRNA)
RNA: GGGAGUUCUACAGUCCGACGAUCAUAGUGAGCCACUAGAGUCCUAAAUCUGGAACAGUGGCGGUCAUCCGAAAACUGGCCGAUGAAAAACUUGCCCAGUGAAGUGUCAACAAAGCAAACACCAUACACACGAGUGUGACCAGACAACAGAGGAUUGAGCAUCA
B2: chr11:60016922:60016923:-_ENSMUSG00000020538_ENSMUST00000020846|mus_mus|FALSE|FALSE (ssRNA)
RNA: GGGAGUUCUACAGUCCGACGAUCCAGCUUAUGGUAGACAACAGCCGCAUCCCGGGCACUGGCACGGGCAUCCUUCCUCAGCCCACGGUCCCUCAGCAGGCCCCCGGCCUGGCCUGCCAGCCAGCGGCCCACCCAGAGACGCUGCAACAGAGGAUUGAGCAUCA
B3: chr2:241070358:241070359:-_ENSG00000172428_ENST00000607357|hu_hu|FALSE|FALSE (ssRNA)
RNA: GGGAGUUCUACAGUCCGACGAUCGAACAGAAUCAUCUAGGUCGUUAAGAACAGUCUUAUCUUUCUGGUUAACCAGGUCCUAAAUUCAAGGGAUUUCCACGUGUUCUUUAAAACCACCUGAAACUGUCCUGCGCAGGCUCACACCAACAGAGGAUUGAGCAUCA
B4: 93608286_93609282_2944_CDS_ENSG00000107854_ENST00000371627|human|control|control (ssRNA)
RNA: GGGAGUUCUACAGUCCGACGAUCAUCUACUCCUGGAACCUCCUUUUUCUCCAAACUGGAAGCACCCUCUGUUCCACUUGAACUAACUACUGAAGACAGUUCUGAAAAACUCCCAGAUAAGUUGUCAAGACUGCUGGCUGCAGACAACAGAGGAUUGAGCAUCA
B5: chr5:173383253:173383254:+_ENSG00000113742_ENST00000334035|hu_hu|FALSE|FALSE (ssRNA)
RNA: GGGAGUUCUACAGUCCGACGAUCAAAACACCUAUAUUAUAGGUCAUUCUUUUCAUUAUACUAUAGUUAAGUUACAGACUGCUACAAAAGGACAUGCCAGCGUGAAGAGGUUGAGGAAGGGGUCAGAAUGAACAGAAGAGUGCACAACAGAGGAUUGAGCAUCA
B6: chrX:98862621:98862622:+_ENSMUSG00000034160_ENSMUST00000044475|mus_hu|mus_mus_mus_hu_False|18_48 (ssRNA)
RNA: GGGAGUUCUACAGUCCGACGAUCCUGCAUCUCCUUUAGAGUGUUUCCCAUAUUAGAGUAGGCAUCAGCAAAGGUAGGACUGAUUCGUAUGGCUUCUUUAUAAUGCAUCAGAGCUUCCUGCAGCUUGCCCUGCUGCUGCAGUACCAACAGAGGAUUGAGCAUCA
B7: chr6:52671308:52671309:+_ENSMUSG00000004535_ENSMUST00000080723|mus_hu|FALSE|FALSE (ssRNA)
RNA: GGGAGUUCUACAGUCCGACGAUCCCACAUUUUGAAAGAUGACAUGGGCAAAGUUGGAAGUCUGCAAUGGGACUUCUUGAAAGGAUGUCAUUGUGAAUCCAGUGGAAAGACUCCCGGAUCAAGGGAGAAAGUUACGCAGGCUUCCAACAGAGGAUUGAGCAUCA
B8: chr10:70508923:70508924:+_ENSG00000060339_ENST00000535016|hu_hu|motif|central (ssRNA)
RNA: GGGAGUUCUACAGUCCGACGAUCUCUUCCUGAAAAUCGGGAUGGGGGAUCUAAUCGUCGUGCCGGUUGUGGCUGUGAAACGGUACGAACAGGAGGCUGCAAUAAACCAGCUUUUUGCUGAGGCUGCUGUAAUAAGGGCUGUGGCAACAGAGGAUUGAGCAUCA
B9: chr4:17845017:17845018:+_ENSG00000109805_ENST00000514176|hu_mus|hu_hu_hu_mus_False|38_88 (ssRNA)
RNA: GGGAGUUCUACAGUCCGACGAUCGCUCUCUUAACUUGUAUCUUCAUGAGAAAUUGGUGCAAGGUUAAGUUUACUUUUCUGUAGCGCAGCUGUUUUGCUCGUCUUGGGUAAUCUCAUCUUCAUUUCUGAUGGUGGUUCAUGAUCCAACAGAGGAUUGAGCAUCA
B10: chr2:60072280:60072281:+_ENSMUSG00000026977_ENSMUST00000102748|mus_mus|FALSE|FALSE (ssRNA)
RNA: GGGAGUUCUACAGUCCGACGAUCUCUUCGUGAGAAAAAAGUAGAUGACAUGCUAGAAGCUAUCCGUGACAGCAAUCUCCUAGUUGUACGCCUACCUUCAUUGUCAGAAGAUUCUCGAUAUGGUCUCUGAGAUGAACCCCUUUCCAACAGAGGAUUGAGCAUCA
B11: chr19:7500544:7500545:-_ENSMUSG00000024758_ENSMUST00000025667|mus_hu|FALSE|FALSE (ssRNA)
RNA: GGGAGUUCUACAGUCCGACGAUCCACAGACACGUACACACAGUUUCAUUAGUAAUUUUUCAUCUAUAGGUUUUUCUUAAAAAAAAAAAAAAAUCCUGUGUGGCACAAAGAUCUCUUCAAUUAUCUAAACACAGCAGCAACAAACAACAGAGGAUUGAGCAUCA
B12: 119749387_119749507_2886_CDS_ENSMUSG00000033943_ENSMUST00000110774|mouse|control|control (ssRNA)
RNA: GGGAGUUCUACAGUCCGACGAUCAACAGGGUAUGGUAAAAUAGACUUAUAAGAUGAUUUAGUUCGGCCACUGAGUGUUGUCUGUUUGUUCUGAGCCUUUGUUUUUCGAGAGGCAGUGGUUACAGACUGAGGCUUCACAGAGUGCAACAGAGGAUUGAGCAUCA
B13: chr4:76703833:76703834:+_ENSG00000138768_ENST00000264904|hu_hu|motif|central (ssRNA)
RNA: GGGAGUUCUACAGUCCGACGAUCUUGGAGUUGUUGUUUUUUAAUAAGUUUUGGAGCAAAAUCAAACAAUCUUCAACGGCGGUACCUCCAUCACUGUUCCCCUCCUCUGAAAUAAUGUCCAGUAGUCUCUCGAAAGCAUUUUCACAACAGAGGAUUGAGCAUCA
B14: chr19:16212804:16212805:+_ENSG00000167460_ENST00000300933|hu_mus|hu_hu_hu_mus_False|8_98 (ssRNA)
RNA: GGGAGUUCUACAGUCCGACGAUCAACAAUUCUGGAGAAGAACAUCAAUGUAACAUGGAACAGCAUUAAAGCUCAGUCAGAAGGCACAUGGGCAACAAUGAUCACCCCAGCAUUCUCGCUUGGAAUGUGCUUGAGAAAUCUGUUCAACAGAGGAUUGAGCAUCA
B15: chr5:31825596:31825597:-_ENSMUSG00000053134_ENSMUST00000065388|mus_hu|FALSE|FALSE (ssRNA)
RNA: GGGAGUUCUACAGUCCGACGAUCAGCCAGUUAUUUAUGUAAAAAGUAGGCUAUUUGUGACCACUUAGAAAAAUGUCAGUGUCAGCAAAACUGUAGGACCAAAGGUGUUCUCCCUUUGCAGAUUCAUUGUCCAUAUGUCUCUUCCAACAGAGGAUUGAGCAUCA
B16: chrX:15845472:15845473:-_ENSG00000182287_ENST00000329235|hu_mus|FALSE|FALSE (ssRNA)
RNA: GGGAGUUCUACAGUCCGACGAUCCCACAAGAAGUCAUCAGCAAGGGAGGACAGUUAUGUCAGUCCAAUUUCUUCAAGAACACUACGUGGGGUUUCAGCUUCUUUUGCAUCCUCCUGCAGGAGAUCGGCCUGCUCAAUUGCUUUCAACAGAGGAUUGAGCAUCA
B17: chr7:7679991:7679992:-_ENSG00000106399_ENST00000396682|hu_hu|hu_hu_hu_mus_False|18_28 (ssRNA)
RNA: GGGAGUUCUACAGUCCGACGAUCUGGGAUGAAUCUUUUCCAGCUUCCCCACGAAGCACACGGGCCGGUCGAUAUACUGUGGUAACAUGCUGGCGUUGACGCGCGCUCUGGGCAAGUCCAUCAUGUCCUCCAUGAUUCUGCCGCCAACAGAGGAUUGAGCAUCA
B18: chr12:52885226:52885227:-_ENSMUSG00000035247_ENSMUST00000042052|mus_hu|FALSE|FALSE (ssRNA)
RNA: GGGAGUUCUACAGUCCGACGAUCUUUAAAAACAUUUAUUCUUUCUACCAGUUGACUACAAUCUUGUUUCAUAUCCAAAUCCAUGCUAUUGUUUAACACAGUAAGAAGUGCUUGUACCAAGCCACUGCUACACAUUUCAUAUGGCAACAGAGGAUUGAGCAUCA
B19: 73094735_73096627_1794_CDS_ENSMUSG00000022607_ENSMUST00000110036|mouse|control|control (ssRNA)
RNA: GGGAGUUCUACAGUCCGACGAUCUCUUACUUGCAAAAAUGACCUCAGCUCUCCAAGUGUGCACAACUCCAUGAUUAUCCAGACAGGGUUCUCUGUAAUGACUCCAAUCAGCUUCACGAUGUGAGGAUGGUCAAACUGACGCAUCAACAGAGGAUUGAGCAUCA
B20: chr16:75691255:75691256:+_ENSG00000166848_ENST00000300086|hu_mus|FALSE|FALSE (ssRNA)
RNA: GGGAGUUCUACAGUCCGACGAUCAAAGUUUUAUUUAUUUUCAAUGACAAAAACAACACAGCAAAGUGGACCAAGGCCACUCAAUUUUAAGUCUAGCAUAAUUUUCAGCAGAAAACGUAUGUUCCACAUAAUUUUAAAAUUGACCAACAGAGGAUUGAGCAUCA
B21: chr3:149684035:149684036:-_ENSG00000070087_ENST00000452853|hu_mus|motif|central (ssRNA)
RNA: GGGAGUUCUACAGUCCGACGAUCAGUUCAUAUGUUUUCUUGUUAAUUGUGCCUGCGUGGACACCUUCCUUUCCCAUGACGGUAACCAAUGCUGGAGUACACAAGGAAACAAAACAAAAAUGAACACAAUUAUUUAAGGGGAAGCAACAGAGGAUUGAGCAUCA
B22: chr11:93905761:93905762:+_ENSMUSG00000020859_ENSMUST00000103168|mus_hu|FALSE|FALSE (ssRNA)
RNA: GGGAGUUCUACAGUCCGACGAUCAGCUGGCACACCGGUAGAAAUAGAAAAGUGCACAAGCAGCAAAACAGAGAGAGAUACUAAGAUAGCAGAAUUAAUGACCACCGCCCCGCCAACAAAGCCAAACACAAACAGCAGCAUGCACAACAGAGGAUUGAGCAUCA

The other results are listed elsewhere or left out.

The target in the test is T1, UNK ZnF1-3. Nature of the test: nsRBNS (natural sequence RNA bind-n-seq); RBNS binding buffer (assumed for nsRBNS): 25 mM Tris pH 7.5, 150 mM KCl, 3 mM MgCl2, 0.01% Triton X-100, 500 ug/ml BSA, 20 U/ml SUPERase-In, 4 C; UNK is unkempt and MSI1 is Musashi-1; names of the RNAs are library labels; protein concentration not given here; high values mean tight binding.
In turn, B1 yielded a binding signal of 1.33 enrichment R.
B2 gave a binding signal of 0.427 enrichment R.
The molecule B3 showed a binding signal of 1.02 enrichment R.
On to B4, for which the binding signal was found to be 1.27 enrichment R.
With B5 the figure was 1.87 enrichment R; with B6, 0.956 enrichment R.
For B7, the binding signal was 1.29 enrichment R.
With B8 the figure was 1.37 enrichment R.
Take B9: the binding signal was 0.344 enrichment R.
The molecule B10 came in with a binding signal of 0.488 enrichment R.
For B11 the value was 1.84 enrichment R.
With B12 the figure was 0.733 enrichment R.
With B13 the figure was 1.19 enrichment R; with B14, 1.28 enrichment R.
The molecule B15 gave a binding signal of 1.98 enrichment R.
B16 showed a binding signal of 1.04 enrichment R.
B17 showed a binding signal of 0.687 enrichment R.
On to B18, for which the binding signal was 1.03 enrichment R.
With B19 the figure was 1.14 enrichment R.
For B20 the value was 1.58 enrichment R; for B21, 1.04 enrichment R; for B22, 2.74 enrichment R.

The record behind these values is PMC12136788.
